This note sets out measurements from article PMC4336329 (PLoS ONE, 2015).

Screen size: about 310,000 compounds; about 14,000 (4.5%) showed an effect of 50% or more. The effect is printed as a negative number. The list shows a part of the results.
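Note: peak tail current of the secondary pulse compared with the same well before compound.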

In this experiment the target is human ether-à-go-go-related gene (hERG) potassium channel (human, UniProt Q12809). In words: primary screen, population patch clamp on CHO cells stably expressing hERG.
Sequence of human ether-à-go-go-related gene (hERG) potassium channel (Q12809 whole entry, looked up): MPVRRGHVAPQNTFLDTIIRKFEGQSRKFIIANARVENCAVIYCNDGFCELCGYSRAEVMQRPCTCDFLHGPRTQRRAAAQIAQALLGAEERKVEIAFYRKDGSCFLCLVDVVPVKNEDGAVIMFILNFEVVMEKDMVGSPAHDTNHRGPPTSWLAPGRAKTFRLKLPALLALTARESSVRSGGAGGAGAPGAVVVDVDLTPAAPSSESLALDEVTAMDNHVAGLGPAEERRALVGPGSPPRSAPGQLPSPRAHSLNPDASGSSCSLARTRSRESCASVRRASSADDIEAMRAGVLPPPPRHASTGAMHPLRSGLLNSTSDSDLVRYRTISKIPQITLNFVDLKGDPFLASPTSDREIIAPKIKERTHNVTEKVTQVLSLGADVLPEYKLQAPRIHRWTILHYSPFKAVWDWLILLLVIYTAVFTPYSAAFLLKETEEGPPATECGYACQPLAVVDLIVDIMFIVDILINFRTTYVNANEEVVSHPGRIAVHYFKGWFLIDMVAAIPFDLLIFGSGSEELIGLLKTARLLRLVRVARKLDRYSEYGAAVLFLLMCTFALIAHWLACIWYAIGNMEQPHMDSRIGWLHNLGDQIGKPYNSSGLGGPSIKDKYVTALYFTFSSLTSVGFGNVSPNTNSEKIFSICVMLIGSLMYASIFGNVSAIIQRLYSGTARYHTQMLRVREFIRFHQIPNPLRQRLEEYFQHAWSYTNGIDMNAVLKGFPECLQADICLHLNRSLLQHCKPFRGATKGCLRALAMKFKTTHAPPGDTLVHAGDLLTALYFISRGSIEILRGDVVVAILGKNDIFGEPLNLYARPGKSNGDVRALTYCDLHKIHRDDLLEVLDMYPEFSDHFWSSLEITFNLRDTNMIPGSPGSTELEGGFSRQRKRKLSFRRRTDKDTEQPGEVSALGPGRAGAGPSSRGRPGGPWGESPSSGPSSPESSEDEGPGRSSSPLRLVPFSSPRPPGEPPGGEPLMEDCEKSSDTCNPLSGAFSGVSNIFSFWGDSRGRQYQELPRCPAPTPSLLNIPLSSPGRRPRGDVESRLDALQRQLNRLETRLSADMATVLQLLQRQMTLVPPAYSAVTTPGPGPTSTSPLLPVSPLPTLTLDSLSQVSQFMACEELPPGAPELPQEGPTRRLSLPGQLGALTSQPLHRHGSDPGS
In the case of `CCN(CC)CCn1c(N)cc(=O)[nH]c1=O`, the “hERG current change (%, negative = inhibition) at 10uM” value is 11.6%.

For `COc1cc(C(=O)OCC(=O)NCCN2C(=O)CSC2=O)ccc1OCc1c(C)noc1C`, the “hERG current change (%, negative = inhibition) at 10uM” value turned out to be 15.8%.

With `O=C(NCCc1ccccc1)C1=COCCO1`, the “hERG current change (%, negative = inhibition) at 10uM” value is 6.86%. Then `CC(c1ccccc1)C1CC(=O)N(CC(=O)O)C1=O` (stereo not shown), with 16.9%; and `C=CCN=C1N[C@@H](c2cccc(C(F)(F)F)c2)C(C(=O)OC)=C(C)N1CC`, with -1.72%; and `C=CCNC(=O)CSc1nnc(-c2ccccc2Br)n1-c1cccc(C(F)(F)F)c1`, with 1.12%. Then `CCN1CCN(C(=O)CN(C)S(=O)(=O)c2ccc(Cl)cc2)CC1`, with -35.6%. Regarding `Cc1ccc(C2C3=C(CC(C)(C)CC3=O)OC3=C2C(=O)CC(C)(C)C3)cc1`, the “hERG current change (%, negative = inhibition) at 10uM” value is recorded as 6.28%. The result for `Nn1c(SCC(=O)Nc2ccc(N3CCOCC3)cc2)nnc1-c1ccccc1F` reads -9.58%; that for `CC(C)OC(=O)C1CC=CCC1C(=O)Nc1ccc(Cl)cc1` (stereo not shown), -6.02%. Then `NNC(=O)CNC(=O)c1ccccc1F`, with 10.7%. The result for `O=C1CC(Nc2ccc(N3CCOCC3)cc2)C(=O)N1Cc1ccccc1` (stereo not shown) reads 3.46%; that for `C=C1C/C(=C/C)C(=O)O[C@@H]2CCN3CC=C(COC(=O)[C@]1(C)O)[C@H]23`, -0.965%; that for `CC1CCCC(NC(=O)NC(=O)CCl)C1C` (stereo not shown), 12.7%. `Cc1nc2ccccc2nc1OCC(=O)NCc1ccc2c(c1)OCO2`: the “hERG current change (%, negative = inhibition) at 10uM” value was -11.6%. For `O=C(O)c1nc2ccccc2nc1C(=O)O`, the “hERG current change (%, negative = inhibition) at 10uM” value was 14.9%. The result for `Cc1cc(C)n2nc(SCC(=O)Nc3ccccc3C)nc2n1` reads 1.88%; that for `CCOC(=O)c1c(NC(=O)CSc2nnc(-c3ccccc3C)n2C)sc(C(C)=O)c1C`, -63%; that for `CSC1=N/C(=C/c2cccnc2)C(=O)N1Cc1ccc(Cl)cc1`, -27.1%. Then `O=C1NC(=Nc2ccccc2)c2ccc([N+](=O)[O-])cc21`, with 3.21%; and `O=C(NC1CCCN(Cc2ccc(Cl)cc2)C1)c1c(F)ccc(F)c1F` (stereo not shown), with -75.3%. The result for `CN(CCO)S(=O)(=O)c1ccc2c(c1)C(=NNC(N)=O)c1cc(S(=O)(=O)N(C)CCO)ccc1-2` reads 7.97%; that for `NC(=O)OCCSc1nnc(-c2cccc(C(N)=S)c2)o1`, 2.14%.

As to `COc1cccc(N2C(=O)CN(Cc3ccccc3)C2=S)c1`, the “hERG current change (%, negative = inhibition) at 10uM” value turned out to be 6.83%. Then `Cc1ccccc1OCc1nc2ccc(S(=O)(=O)N3CCOCC3)cc2[nH]1`, with -17.6%; and `CCOCCn1c(SCCCc2ccccc2)nc2c1c(=O)[nH]c(=O)n2C`, with -2.67%; and `O=[N+]([O-])c1ccc(N2CCN(S(=O)(=O)c3ccc4ccccc4c3)CC2)cc1NCC1CCCO1` (stereo not shown), with 18.2%. With `COc1ccc(OCCn2c(C)c(/C=N/n3cnnc3)c3ccccc32)cc1`, the “hERG current change (%, negative = inhibition) at 10uM” value is recorded as -0.339%.

As to `COc1ccc(CCc2nnc(CCC(=O)NCCc3ncccc3C)o2)cc1`, the “hERG current change (%, negative = inhibition) at 10uM” value was -3.34%. With `Cc1ccc(NC(=O)C2C3C=CC4(O3)C2C(=O)N(CCCN2CCCC2)C4C(=O)NC2CCCCC2)cc1Cl` (stereo not shown), the “hERG current change (%, negative = inhibition) at 10uM” value is on record as 17.5%.

Take `Cn1cccc1/C=N/N1CCN(Cc2ccccc2)CC1`: the “hERG current change (%, negative = inhibition) at 10uM” value is on record as -8.12%. As to `CN(C)Cc1ccccc1Sc1ccccc1Br`, the “hERG current change (%, negative = inhibition) at 10uM” value is reported as -36.5%. For `COc1ccccc1NC(=O)CSc1ccc(-c2ccc(-n3ccnc3)cc2)nn1`, the “hERG current change (%, negative = inhibition) at 10uM” value was -3.71%. Consider `Cc1ccc(CN(CC(=O)NCC2CCCO2)S(=O)(=O)c2ccc(C)cc2)cc1` (stereo not shown), for which the “hERG current change (%, negative = inhibition) at 10uM” value is recorded as -1.71%. With `CCn1c(C)nc2cc(C(=O)NNC(=O)Nc3ccc(Cl)cc3)ccc21`, the “hERG current change (%, negative = inhibition) at 10uM” value is recorded as -12.7%. For `O=C(O)C1Cc2ccccc2N2CCCC12` (stereo not shown), the “hERG current change (%, negative = inhibition) at 10uM” value was 20%. The result for `CCC(C(=O)Nc1ccc(C(=O)O)cc1NC(=O)C(CC)c1ccccc1)c1ccccc1` (stereo not shown) reads 9.71%; that for `CCOC(=O)C(NC(=O)Nc1ccc(C(N)=O)cc1)(c1ccccc1)C(F)(F)F` (stereo not shown), -14.6%; that for `CCOc1ccc(/C=C2\SC(=S)N(NS(=O)(=O)c3ccccc3)C2=O)cc1OC`, -6.2%. Then `Cc1cc(OC(C)C(=O)NCC(O)c2ccccc2)c2c(C)cc(=O)oc2c1` (stereo not shown), with 11%; and `O=C(Nc1ccccc1)ON=C1c2ccccc2-c2ccccc21`, with 10.3%; and `C/C(=N\NC(=O)CN1CCCCC1)c1ccccc1O`, with -2.4%. In the case of `COc1ccc(Cn2c(CCCO)nc3ccccc32)cc1OC`, the “hERG current change (%, negative = inhibition) at 10uM” value is reported as -4.94%. For `Cc1ccnc(NC(=O)c2cccs2)c1`, the “hERG current change (%, negative = inhibition) at 10uM” value was determined as 12%. Take `NC(=O)c1oc2ccccc2c1NC(=O)c1ccc([N+](=O)[O-])o1`: the “hERG current change (%, negative = inhibition) at 10uM” value is 14.7%. Then `O=C(Nc1cccc(-c2nc3ccccc3[nH]2)c1)c1ccco1`, with -16.9%; and `COc1ccccc1Oc1nnnn1-c1ccc(C(N)=O)cc1`, with 2.96%; and `O=C1c2cccc3c(N4CCCCC4)ccc(c23)C(=O)N1CCO`, with -0.161%. Then `O=C1c2ccccc2CN1CCSC(=S)N1CCOCC1`, with -8.59%; and `CCOc1ccc2nc(NC(=O)CSc3nc(SC)ns3)sc2c1`, with 0.808%. Take `COC(=O)c1ccc(CN2C(=O)c3ccccc3C2=O)cc1`: the “hERG current change (%, negative = inhibition) at 10uM” value came out at 8.01%. Then `COc1ccccc1C(CNC(=O)c1cc(S(=O)(=O)N2CCOCC2)ccc1C)N1CCCC1` (stereo not shown), with 2.53%; and `CNNC(=O)C(=O)NNS(=O)(=O)c1ccccc1`, with 10.1%; and `COc1ccc(C(=O)NC2CC2)cc1OC1CCN(Cc2cnn(C)c2C)CC1`, with -27.2%. On to `CC(=O)Nc1cc2c(cc1NC(=O)Cn1nc(-c3ccc(F)cc3)ccc1=O)OCCO2`, for which the “hERG current change (%, negative = inhibition) at 10uM” value is on record as -8.86%.

On to `CC1CC(C)CN(C(=O)c2ccc3c(=O)n(Cc4ccc5c(c4)OCO5)c(=S)[nH]c3c2)C1` (stereo not shown), for which the “hERG current change (%, negative = inhibition) at 10uM” value is listed as 9.38%. Consider `OC[C@H]1NC[C@@H](O)[C@@H]1O`, for which the “hERG current change (%, negative = inhibition) at 10uM” value amounted to 18.7%.

As for `COc1ccc(CCNC(=O)c2cc3c(=O)n4cccc(C)c4nc3n(CCCN3CCOCC3)c2=N)cc1`, the “hERG current change (%, negative = inhibition) at 10uM” value is reported as -76.2%. The result for `CC(C)(C)N1C(=O)c2ccc(C(=O)Nc3ccc(-c4nc5ccccc5[nH]4)cc3)cc2C1=O` reads 16.8%; that for `CC(C(=O)Nc1ccon1)N1C(=O)c2ccccc2S1(=O)=O` (stereo not shown), 1.49%; that for `Cl.c1ccc(C(c2ccccc2)N2CCN(Cc3nnnn3C3CCCC3)CC2)cc1`, -9.83%. Take `O=C(c1ccc2nc(N3CCOCC3)sc2c1)N1CCCC1`: the “hERG current change (%, negative = inhibition) at 10uM” value was -10.8%. Then `CC(=O)Nc1ccc(S(=O)(=O)N2CCSC2C(=O)O)cc1` (stereo not shown), with 0.312%; and `FC(F)(F)c1ccc(-c2nnc(-c3cccnc3)o2)cc1`, with 7.74%; and `CCOC(=O)Cc1cnc(NC(=O)CSc2nc(C)cc(C)n2)s1`, with 22%. Then `Cc1noc(C)c1COC(=O)C1CC(O)CN1S(=O)(=O)c1ccc(Cl)cc1` (stereo not shown), with -8.48%; and `CCc1nnc(NC(=O)CCN2C(=O)C3CCCCC3C2=O)s1` (stereo not shown), with 4.31%; and `CSc1ccccc1COC(=O)Nc1ccccc1C`, with -16.9%.

Turning to `COc1cc2c(cc1OC)CN(C1CCC(C)CC1)CC2` (stereo not shown), the “hERG current change (%, negative = inhibition) at 10uM” value is listed as 4.15%. The result for `CN(C(=O)COC(=O)c1ccccc1NCCO)C1CCS(=O)(=O)C1` (stereo not shown) reads -12.9%; that for `CCN(CC)CCCNC(=O)Cn1cnc2sc(C)c(S(=O)(=O)N3CCC(C)CC3)c2c1=O`, 11.1%. Then `COc1ccc(-c2nnc(SC(C)C(=O)NCc3ccc4c(c3)OCO4)n2Cc2ccco2)cc1` (stereo not shown), with -55.1%; and `COc1ccc(NC(=S)N(CCCN2CCCC2)Cc2cccn2Cc2ccc(Cl)cc2)cc1Cl`, with -6.98%; and `COc1ccc(C(CC(=O)O)c2ccc3c(c2)OCO3)cc1` (stereo not shown), with 14.7%.

As for `CC(C)NC(=O)CCNS(=O)(=O)c1ccc(Br)cc1`, the “hERG current change (%, negative = inhibition) at 10uM” value was 7.82%. As to `CNC(=O)c1sc2nc(-c3ccc(OC)cc3)cn2c1C`, the “hERG current change (%, negative = inhibition) at 10uM” value is on record as -8.45%. Take `COCCn1c(Br)nc2c1c(=O)n(C)c(=O)n2C`: the “hERG current change (%, negative = inhibition) at 10uM” value is 8.14%. In the case of `CC(=O)Nc1ccc(NC(=O)CSc2nnc(-c3cc(C)[nH]n3)n2N)cc1`, the “hERG current change (%, negative = inhibition) at 10uM” value is 3.51%. On to `Cc1ccc(NC(=S)N2CCCC(O)C2)cc1` (stereo not shown), for which the “hERG current change (%, negative = inhibition) at 10uM” value worked out at 2.57%.

Turning to `COc1cccc(OCc2cc(C(=O)NCCN3CCCCC3CO)no2)c1` (stereo not shown), the “hERG current change (%, negative = inhibition) at 10uM” value is 2.5%.

Regarding `COc1ccc(S(=O)(=O)N2CCN(C(=S)NCCc3ccccc3)CC2)cc1`, the “hERG current change (%, negative = inhibition) at 10uM” value is listed as 13.9%. The result for `Nc1c(Cl)cc(-c2csc(N3CCCC3c3nc4cc(Cl)c(Cl)cc4n3CCCO)n2)cc1Cl` (stereo not shown) reads -2.8%. The result for `COc1cccc(OCc2cc(C(=O)NC3CCOCC3)no2)c1` reads 6.95%; that for `CCC(=O)Nc1nnc(CSCc2ccccc2)s1`, 0.817%. As to `COc1ccc2cc(C(=O)C3CCCN(C(=O)C4=NN(C)C(=O)CC4)C3)ccc2c1` (stereo not shown), the “hERG current change (%, negative = inhibition) at 10uM” value is -23.8%. The result for `CCN(CC(=O)Nc1ccc2c(c1)OCCO2)C(=O)c1cccc(S(=O)(=O)N2CCOCC2)c1` reads 7.97%; that for `COC(=O)C(Cc1cnc(Cl)s1)(C(=O)OC)c1ccc(C(F)(F)F)cc1[N+](=O)[O-]`, -2.69%. `CC(C)c1nc(SCC(=O)Nc2ccc(N3CCOCC3)cc2)c2ccccc2n1`: the “hERG current change (%, negative = inhibition) at 10uM” value is listed as -7.78%.
